# The whole screen tested about 310,000 compounds, of which about 14,000 (4.5%) showed an effect of 50% or more. The effect is printed as a negative number. Some of the results follow.
# Target: human ether-à-go-go-related gene (hERG) potassium channel (human, UniProt Q12809)
# Test: primary screen, population patch clamp on CHO cells stably expressing hERG
# 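Further: peak tail current of the secondary pulse compared with the same well before compound.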
# Sequence of human ether-à-go-go-related gene (hERG) potassium channel (Q12809 whole entry, looked up): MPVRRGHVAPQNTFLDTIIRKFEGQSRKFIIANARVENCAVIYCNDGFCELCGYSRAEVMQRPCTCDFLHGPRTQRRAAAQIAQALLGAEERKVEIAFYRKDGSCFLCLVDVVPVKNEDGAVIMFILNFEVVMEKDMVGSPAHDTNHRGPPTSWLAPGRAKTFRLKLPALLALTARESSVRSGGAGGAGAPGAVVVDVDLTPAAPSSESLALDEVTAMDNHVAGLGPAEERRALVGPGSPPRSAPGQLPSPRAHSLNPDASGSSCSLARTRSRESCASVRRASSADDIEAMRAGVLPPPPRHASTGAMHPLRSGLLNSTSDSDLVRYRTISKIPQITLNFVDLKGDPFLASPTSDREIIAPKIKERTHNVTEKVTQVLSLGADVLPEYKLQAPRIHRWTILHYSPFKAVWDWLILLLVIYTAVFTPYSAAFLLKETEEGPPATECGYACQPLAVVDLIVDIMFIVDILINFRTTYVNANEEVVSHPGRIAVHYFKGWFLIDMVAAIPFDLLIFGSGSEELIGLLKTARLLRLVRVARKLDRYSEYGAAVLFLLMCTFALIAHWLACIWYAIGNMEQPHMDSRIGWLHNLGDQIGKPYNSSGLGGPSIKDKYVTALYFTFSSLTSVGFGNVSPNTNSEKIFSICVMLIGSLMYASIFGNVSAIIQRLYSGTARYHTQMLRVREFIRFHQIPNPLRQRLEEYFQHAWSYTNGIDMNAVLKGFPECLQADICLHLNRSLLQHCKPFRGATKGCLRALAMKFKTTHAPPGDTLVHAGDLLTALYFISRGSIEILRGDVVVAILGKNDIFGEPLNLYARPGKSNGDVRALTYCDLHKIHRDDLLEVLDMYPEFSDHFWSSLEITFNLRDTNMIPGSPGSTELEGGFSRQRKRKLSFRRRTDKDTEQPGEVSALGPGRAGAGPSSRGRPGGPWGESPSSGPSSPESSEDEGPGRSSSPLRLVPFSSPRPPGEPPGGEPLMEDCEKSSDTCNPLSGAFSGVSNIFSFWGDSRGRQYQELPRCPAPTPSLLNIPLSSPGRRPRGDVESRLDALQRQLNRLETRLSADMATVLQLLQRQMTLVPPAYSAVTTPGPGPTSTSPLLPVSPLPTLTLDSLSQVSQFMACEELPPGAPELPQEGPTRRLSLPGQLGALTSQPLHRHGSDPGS
row,SMILES,"hERG current change (%, negative = inhibition) at 10uM [%]"
1,CCC(C(=O)Nc1cccc(C(F)(F)F)c1)c1ccccc1 (stereo not shown),3.89
2,CC(/C=C/c1ccccc1)=N\Nc1nc(-c2ccccc2)cs1,-4.71
3,O=[N+]([O-])c1ccc(S(=O)(=O)CC2CSc3nc4ccccc4n32)cc1 (stereo not shown),-12.7
4,Cc1ccc(S(=O)(=O)CC#CCOC(=O)c2ccc([N+](=O)[O-])cc2)cc1,-7.06
5,N#CC1CCCc2c1[nH]c1ccc([N+](=O)[O-])cc21 (stereo not shown),12.5
6,O=[N+]([O-])c1ccc(-c2cnc(SCc3ccccc3Cl)[nH]2)cc1,0.956
7,Cc1cccnc1N1C(=O)c2ccc(C(=O)O)cc2C1=O,12.5
8,O=C1NCCc2c1[nH]c1ccccc21,-77
9,Cc1cc(C)nc(NC2=NCCN2C(=S)Nc2c(C)cccc2C)n1,-27.7
10,CN(CC(=O)Nc1ccccc1Cl)C(=O)c1cc(C2CC2)nn1-c1ccccc1,-18.1
11,Cc1ccc(C2OC3=C(C(=O)CC(C)(C)C3)C(N)=C2C#N)o1 (stereo not shown),7.31
12,S=C1NC[C@H](Cc2ccccc2)N1CCCCC1CCCCC1,4.71
13,Cc1nc(CC(=O)Nc2nccs2)cs1,-4.9
14,COc1ccc(-c2cn(CCO)c(-c3ccncc3)n2)cc1,7
15,COc1ccc(-c2cc(C)nc(SCC(=O)c3cccc([N+](=O)[O-])c3)n2)cc1,0.439
16,CN(C(=O)COc1ccccc1C(=O)NCCOc1ccccc1)c1ccccc1,-9.86
17,Cc1c(C(=O)Nc2ccc(Br)cc2)cnn1C,-21.8
18,CC(C)(C)c1nnc(NC(=O)Nc2ccc(Cl)cc2)s1,13.6
19,Oc1cc(Cl)cc(Cl)c1Cl,8.5
20,CCCN(C(=O)CSc1nnnn1-c1ccccc1OC)C1CCS(=O)(=O)C1 (stereo not shown),-20.7

row,SMILES,"hERG current change (%, negative = inhibition) at 10uM [%]"
1,COc1ccc(CNC(=O)Cn2nc(C)n3cccc3c2=O)cc1,-1
2,Cc1nc2ccccc2c2c1C(=O)N(C(C)C)C2=O,0.173
3,Cc1ccc(C)n1-n1c(C)nc2sc(-c3ccccc3)cc2c1=O,13.6
4,CC(=O)c1cnc2nc(C)nn2c1C,6.72
5,O=C(Nc1ccc(F)cc1)Oc1ccccc1N1CCOCC1,18.2
6,CCOC(=O)Cn1nnnc1CN(Cc1cccs1)Cc1cc2cc(C)ccc2[nH]c1=O,-17
7,CCOC(=O)N1CCC(NC(=O)c2csc3c2CCCC3)CC1,-1.64
8,COc1ccc2[nH]c3c(=O)n(N)c(C)nc3c2c1,0.621
9,NS(=O)(=O)c1ccc(CCNC(=O)c2cccnc2)cc1,8.2
10,Cc1cc2c(NS(=O)(=O)c3ccc(F)cc3)cccc2nn1,10.9
11,CCCCOP(=O)(OCCCC)C1(NS(=O)(=O)c2ccccc2)C=CC(=O)c2ccccc21 (stereo not shown),-9.69
12,Fc1ccccc1NC(=S)N1CCN(Cc2ccc3c(c2)OCO3)CC1,-1.3
13,CCOC(=O)c1c(C)[nH]c(C(=O)C(C)N2CCCC2)c1C (stereo not shown),8.52
14,O=C(Nc1ccc(Oc2ccccc2)nc1)C1CCCCN1Cc1ccc(O)cc1 (stereo not shown),-25.2
15,O=C1SC(SCc2ccccc2)=N/C1=C\c1ccc(C(=O)O)cc1,27.1
16,O=C(Nc1nnc(Cc2ccc(Cl)cc2)s1)C1CCCO1 (stereo not shown),-2.13
17,CCCCC(=O)N/N=C/c1c(O)n(-c2cccc3ccccc23)c(=O)[nH]c1=O,9.6
18,O=C1CC(c2ccc(F)cc2)Sc2nc(C34CC5CC(CC(C5)C3)C4)nn21 (stereo not shown),15.1
19,CCCOc1ccc(N2CC(C(=O)Nc3ccccc3F)CC2=O)cc1 (stereo not shown),-3.15
20,COC(=O)c1ccccc1NC(=O)NCc1c(C)nn(C)c1C,21.9

row,SMILES,"hERG current change (%, negative = inhibition) at 10uM [%]"
1,O=[N+]([O-])c1ccc(O)c(/C=N/NC(=S)Nc2ccc(Cl)cc2Cl)c1,48.5
2,CCN1CCn2c3c(c4cc(Br)ccc42)CCCC31.Cl (stereo not shown),-11
3,N/C(=N\OC(=O)c1ccc(=O)n(Cc2ccc(Cl)cc2)c1)c1ccccn1,-33.2
4,Nc1cc(=O)[nH]c(=S)n1-c1cccc(C(F)(F)F)c1,20.1
5,CCC(C(=O)OCC(=O)Nc1ccc(C(=O)Nc2ccc(OC)cc2)cc1)c1ccccc1 (stereo not shown),-7.87
6,Cc1nnc(SCc2ccc(Cl)cc2)nc1/C=C/N(C)C,-72.6
7,COC(=O)c1ccccc1NC(=O)C1CC(=O)N(c2ccccc2)C1 (stereo not shown),-20.3
8,O=C(Nc1cc(C(F)(F)F)ccc1N1CCOCC1)C1=NN(c2ccccc2)C(=O)CC1,-35.9
9,O=C(CN1CCN(C(=O)c2ccccc2)CC1)Nc1ccc(Cl)cc1F,-71
10,Cc1ccc(C(=O)Nc2ccc3c(c2)OCO3)cc1S(=O)(=O)N1CCCCC1,-18.8
11,O=C(NCc1ccccn1)c1cccn1-c1ncc(C(F)(F)F)cc1Cl,8.89
12,COc1ccccc1N1CCN(S(=O)(=O)c2c[nH]c(=O)[nH]c2=O)CC1,-27.1
13,Cc1csc(NC(=O)c2ccccc2)n1,16.8
14,O=C(/C=C/c1ccc([N+](=O)[O-])cc1)NCCc1ccccc1,-14.4
15,COc1ccc(C2(O)CCN(Cc3nnnn3Cc3ccc(F)cc3)CC2)cc1,-30.5
16,Cc1ccc(C(=O)NCCN2CCOCC2)cc1C,18.2
17,CCOC(=O)Cc1nnc(NC(=O)COc2ccc(C)cc2)s1,5.07
18,COc1cc(/C=C(/C#N)c2ccc(C)cc2)ccc1Oc1ccc([N+](=O)[O-])cn1,-5.81
